# According to the supplement of paper PMC10126150:
# Values marked as one replicate rest on one cluster of the flow cell; about a third of the high ones do not repeat.
# Test system: ATP
# Assay: switch fluorescence ratio, 500 uM ATP over buffer (Cy3 cluster intensity, sum of 5 cycles each) (fold (ratio)); higher = stronger signal-on switching upon ATP binding; sequences stand for … in TCGTCGGCAGCGTCAGATGTGTATAAGAGACAGTTTTTTTTTTTTTTTTTTTTTTTTT…TC
# Conditions: aptamer strand: ATP DNA aptamer (quencher-CACCTGGGGGAGTATTGCGGAGGAAGG + anchor), 100 nM annealed; ATP concentration: 500 uM; one replicate
# Method in brief: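 For every switch-domain sequence, the fluorescence ratio is the mean of per-cluster values, each being summed target-cycle Cy3 intensity over summed buffer-cycle Cy3 intensity. Clusters outside 100-1000 RFU were excluded. On a modified Illumina MiSeq flow-cell, the Cy3-labelled switching-strand clusters were annealed to 100 nM quencher-labelled ATP aptamer, imaged in selection buffer and then after 15 min with 500 uM ATP at 22 °C. Five such cycles were run, with NaOH stripping and re-annealing between them.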
# 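Also: ATP exposure 15 min at 22 °C before imaging.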
row,Sequence,switch fluorescence ratio
1,TATACAAATA,1.03
2,TATACAGGCA,1.02
3,TATACCGTGC,1.12
4,TATACGTGTT,1.01
5,TATACTAAGA,1.01
6,TATACTAGTA,1.02
7,TATACTGTTA,1.05
8,TATACTTCGA,0.961
9,TATAGATGGA,1.05
10,TATAGCCATC,1.05
11,TATAGCGAGG,1.01
12,TATAGCTCTA,1.04
13,TATAGGCCGA,0.919
14,TATAGGGCTC,1
15,TATAGTACGC,1.04
16,TATAGTATGG,0.978
17,TATAGTGAAT,0.975
18,TATATACTAC,1.07
19,TATATGTACA,0.964
20,TATATGTCAT,0.983
21,TATATTTTCG,1.01
22,TATCAAACAT,1.03
23,TATCAAC,0.96
24,TATCACGTAC,1.62
25,TATCAGACGA,1
26,TATCAGGAGT,0.97

row,Sequence,switch fluorescence ratio
1,TATCAGGCTA,1
2,TATCAGGTAT,1.05
3,TATCCCTGT,1
4,TATCCGCTAA,3.89
5,TATCGCGGGG,0.964
6,TATCGGCCTG,1.09
7,TATCGGGTAG,1
8,TATCGTACCT,1.26
9,TATCTAATGG,1.01
10,TATCTCTATT,0.973
11,TATCTGCTTT,1.01
12,TATCTGGTTA,0.956
13,TATCTTGGTC,0.859
14,TATGAAGATG,0.997
15,TATGAAGCAT,1.35
16,TATGAAGGCT,0.995
17,TATGAATTCA,1.03
18,TATGACCTGG,0.9
19,TATGAGATCA,1
20,TATGAGCAAT,3.09
21,TATGAGGCAA,2.92
22,TATGATCGGC,1.03
23,TATGATGTGT,1
24,TATGATTTAG,0.943
25,TATGCAGTTC,1.12
26,TATGCCGCTT,1

row,Sequence,switch fluorescence ratio
1,TATGCCTAAA,0.996
2,TATGCGCAAA,1.32
3,TATGCGGTAG,1.04
4,TATGCTAGAT,0.985
5,TATGCTCATC,0.978
6,TATGGGATGA,1.04
7,TATGGGGAAG,0.967
8,TATGGGGCTC,1.01
9,TATGGGTCGT,1.01
10,TATGGTCTT,0.962
11,TATGGTGGCT,0.965
12,TATGGTTGCG,1
13,TATGGTTGTA,1
14,TATGGTTGTC,1.06
15,TATGGTTGTT,0.968
16,TATGTAAACC,1.03
17,TATGTATAAG,0.962
18,TATGTATAGC,1.02
19,TATGTCAAT,0.982
20,TATGTCAGGA,0.982
21,TATGTCCCTG,0.971
22,TATGTCCGAT,0.972
23,TATGTCCTT,0.998
24,TATGTCGACT,1.03
25,TATGTCTAAT,1.02
26,TATGTGCAGC,0.99

row,Sequence,switch fluorescence ratio
1,TATGTGTAAA,0.987
2,TATGTTTACG,1.06
3,TATGTTTTTG,0.957
4,TATTAACCCG,1.05
5,TATTAACCGG,1.01
6,TATTACACTA,1.12
7,TATTACGAGC,1.02
8,TATTAGGATA,0.978
9,TATTAGGGCC,0.969
10,TATTATTTGC,1
11,TATTCAAATT,1.06
12,TATTCAGCA,1.02
13,TATTCATAGA,1.01
14,TATTCCAAGA,1.01
15,TATTCGGAGG,0.951
16,TATTGAGA,1.05
17,TATTGAGCAC,1.04
18,TATTGCCGCC,0.972
19,TATTGCGCGA,1.1
20,TATTGCTAAA,1.01
21,TATTGGTGGC,1.02
22,TATTGGTGTA,0.976
23,TATTGTCAGC,1
24,TATTGTGACG,1.15
25,TATTGTGGTC,1.03
26,TATTGTGTCC,0.975

row,Sequence,switch fluorescence ratio
1,TATTTCCTAT,0.971
2,TATTTCTCG,0.978
3,TATTTGAGAG,1
4,TATTTTCCAA,1.04
5,TATTTTGG,1.04
6,TATTTTTGTC,1.02
7,TCAAAAAAAA,0.998
8,TCAAAAGATA,1.01
9,TCAAAGCCCA,0.999
10,TCAAATCAGC,1.02
11,TCAAATCTAT,0.977
12,TCAACAGTGA,1.07
13,TCAACCTGAG,1.81
14,TCAACCTGTG,1.06
15,TCAACCTTAG,1.02
16,TCAACGAGGG,0.964
17,TCAACGGTTA,1.02
18,TCAACGTTGT,0.992
19,TCAACTTGGT,1.05
20,TCAAGACATG,0.954
21,TCAAGCTCCA,1.2
22,TCAAGGACTT,0.993
23,TCAAGGATCA,0.969
24,TCAAGGCCC,1.02
25,TCAAGGGAAT,1.01
26,TCAAGTCTTT,0.973

row,Sequence,switch fluorescence ratio
1,TCAAGTGGGT,0.952
2,TCAAGTGTGG,1
3,TCAAGTTGGA,1.03
4,TCAAGTTTCC,1.05
5,TCAATAGGGT,0.994
6,TCAATAGGTA,0.986
7,TCAATCTATG,1.02
8,TCAATCTCAG,0.979
9,TCAATCTTGC,1.06
10,TCAATGCGA,1.19
11,TCAATGTACG,1.07
12,TCAATGTCGG,0.965
13,TCAATTAAC,1.11
14,TCAATTCATT,0.995
15,TCAATTTGG,1
16,TCAATTTTTG,0.982
17,TCACAACTGG,1.02
18,TCACATGTGC,0.971
19,TCACATTCAG,0.977
20,TCACCCGACT,1.02
21,TCACCCGTTC,1.05
22,TCACCGGATC,1.09
23,TCACCGGGGC,1.13
24,TCACCGGGTA,1.58
25,TCACCGGTAA,1.15
26,TCACCTTGCT,1.34

row,Sequence,switch fluorescence ratio
1,TCACGAACCG,1.28
2,TCACGCATAG,1.47
3,TCACGTACT,1.79
4,TCACGTACTG,1.7
5,TCACTAATCG,1.05
6,TCACTAGATG,1.02
7,TCACTATAAC,1.06
8,TCACTATGAA,1.01
9,TCACTGTTCG,0.978
10,TCACTTCCAA,1.16
11,TCACTTGCG,0.966
12,TCAGAAAAT,0.973
13,TCAGACAGGG,0.867
14,TCAGACGCG,0.969
15,TCAGAGGCGC,0.985
16,TCAGATCGGT,0.987
17,TCAGCAAGCA,1.6
18,TCAGCCCATA,1.02
19,TCAGCGTCAC,1.23
20,TCAGCTAGGG,1.07
21,TCAGCTAGGT,0.972
22,TCAGCTCATT,1.02
23,TCAGCTCTTA,1.07
24,TCAGGCCGCG,1.03
25,TCAGGGTCGT,0.973
26,TCAGGGTGCG,0.998

row,Sequence,switch fluorescence ratio
1,TCAGGTGCAG,1.09
2,TCAGGTTTC,0.991
3,TCAGTAAAGG,1.03
4,TCAGTAGCAG,1.47
5,TCAGTAGGTG,1.05
6,TCAGTATGGT,0.975
7,TCAGTATTAA,0.985
8,TCAGTCAAAT,0.959
9,TCAGTCAGAA,1.01
10,TCAGTCAGTG,1.05
11,TCAGTCGCGC,1.04
12,TCAGTGTACG,1.02
13,TCAGTGTTCC,1.05
14,TCAGTTTGCA,0.976
15,TCATAATGTT,0.994
16,TCATAGCCTT,1.07
17,TCATAGGATG,1.01
18,TCATAGGCTC,0.987
19,TCATAGGTCT,0.96
